{"source": "ChEMBL document CHEMBL4888484", "about": "“Replenishing the malaria drug discovery pipeline: Screening and hit evaluation of the MMV Hit Generation Library 1 (HGL1) against asexual blood stage Plasmodium falciparum ,using a nano luciferase reporter read-out” (2022)", "note": "About 540 (0.36%) of roughly 150,000 compounds showed an effect of 50% or more. The list shows a part of the results.", "data": [{"system": "Plasmodium falciparum", "assay": "Primary screen in NF54 nanoGlo assay, in single point, at 2uM, 72h; a lower Z score goes with more inhibition", "type": "functional, Erythrocyte", "conditions": "timepoint 72 hour", "units": {"% Inhibition": "%"}, "values": [{"smiles": "CCN(CC(F)(F)F)C(=O)NCCc1scnc1C", "% Inhibition": -10, "Z score": 1.44}, {"smiles": "COCc1nc2n(n1)CC(NC1CCCCc3ccccc31)CC2", "note": "(stereo unspecified)", "% Inhibition": -16, "Z score": 2.36}, {"smiles": "Cc1cc(CN(C)c2cc(C(=O)N3CCOCC3)ccn2)no1", "% Inhibition": 1, "Z score": -0.12}, {"smiles": "Cc1cc(C)c2ncn([C@H]3CCC(=O)N(C)C3)c(=O)c2c1", "% Inhibition": -21, "Z score": 2.47}, {"smiles": "CC(C)C1(C(=O)N2CCC(n3cn[nH]c3=O)CC2)COC1", "% Inhibition": -6, "Z score": 1.3}, {"smiles": "Cc1ccc2[nH]cc(-c3ncccc3C(=O)O)c2c1", "% Inhibition": -15, "Z score": 1.96}, {"smiles": "CCOC(=O)Nc1cccc(N[C@@H](C)c2cnn(C)c2)c1C", "% Inhibition": 5, "Z score": -0.48}, {"smiles": "CCC(=O)c1cccc(S(=O)(=O)Nc2ccc3[nH]nnc3c2)c1", "% Inhibition": -14, "Z score": 1.31}, {"smiles": "COC1(CO)CCN(C(=O)NCc2ccc(C3CC3)cc2F)CC1", "% Inhibition": -11, "Z score": 1.66}, {"smiles": "Cc1csc(CCNC(=O)Cc2c(C)[nH][nH]c2=O)n1", "% Inhibition": -5, "Z score": 0.94}, {"smiles": "O=S(=O)(Nc1ccc(N2CCOCC2)cc1)c1ccc(-c2nnc(C3CCCC3)o2)o1", "% Inhibition": -13, "Z score": 1.76}, {"smiles": "Cc1cnccc1N1CCn2c(Cc3cccc(F)c3)nnc2C1", "% Inhibition": 9, "Z score": -1.2}, {"smiles": "CCOc1ccc(OCC(=O)N2CC(CC)N(C(C)=O)CC2CC)cc1", "note": "(stereo unspecified)", "% Inhibition": -10, "Z score": 1.09}, {"smiles": "O=C(NCc1cccc(C(F)(F)F)c1)c1csc(CN2CCC(Cc3ccccc3)CC2)n1", "% Inhibition": -12, "Z score": 1.96}, {"smiles": "O=C(O)c1cccc(N2N=C(c3ccc4c5c(cccc35)C(=O)N(c3ccccc3)C4=O)C[C@H]2c2ccccc2)c1", "% Inhibition": -5, "Z score": 0.97}, {"smiles": "COCCN1C[C@@H](c2nc(C3(NC(C)=O)CCCCC3)no2)CC1=O", "% Inhibition": 3, "Z score": -0.35}, {"smiles": "Cc1cc(S(=O)(=O)N2CCC[C@H](Cn3cncn3)C2)c(C)s1", "% Inhibition": 3, "Z score": -0.57}, {"smiles": "COC(=O)c1cc(C)nc2c1c(=O)n(Cc1ccccc1Cl)c(=O)n2-c1cccc(OC)c1", "% Inhibition": -5, "Z score": 0.67}, {"smiles": "Cc1cc(NCc2cn(C)nn2)ccc1F", "% Inhibition": 3, "Z score": -0.57}, {"smiles": "CC(C)[C@@H]1N[C@@]2(C(=O)Nc3ccc(F)cc32)[C@H]2C(=O)N(CC3CCCO3)C(=O)[C@@H]12", "note": "(stereo partly specified)", "% Inhibition": -6, "Z score": 0.78}, {"smiles": "Cn1c(=O)c2cn3c(c2n(C)c1=O)[C@@H](c1cccc(F)c1)Nc1ccccc1-3", "% Inhibition": -9, "Z score": 1.7}, {"smiles": "O=C(NCC1(CF)CCOCC1)N1CCC(CCc2ccc(F)cc2F)CC1", "% Inhibition": -10, "Z score": 1.56}, {"smiles": "CCc1nnc(CS(=O)(=O)c2ccc3ccccc3c2)o1", "% Inhibition": 0, "Z score": 0}, {"smiles": "Cc1cc(C)c2c(N3CCCC3)nc(C(=O)N3CCN(C4CCCCC4)CC3)nc2n1", "% Inhibition": -5, "Z score": 0.77}, {"smiles": "COc1cccc(CN2C[C@@H](F)[C@@H](OCc3nc4ccccc4o3)C2)n1", "% Inhibition": 19, "Z score": -2.19}, {"smiles": "Cc1ccsc1CCNS(=O)(=O)c1ccc2c(c1)OC[C@@H](C(=O)N1CCCCC1)O2", "% Inhibition": -21, "Z score": 3.63}, {"smiles": "Cc1cc(C)cc(NC(=O)CC(=O)N[C@H]2CCCCNC2=O)c1", "% Inhibition": 1, "Z score": -0.12}, {"smiles": "O[C@H](COc1ccc2c(c1)OCO2)CN1CCCC1", "% Inhibition": -14, "Z score": 2.46}, {"smiles": "CC(C)Cn1c(-c2cccc(C(=O)NC3CC3)c2)nc2cccnc21", "% Inhibition": -17, "Z score": 3.07}, {"smiles": "Cc1ccc(CN2C[C@]34C=C[C@H](O3)C(C(=O)N3CC(O)C3)C4C2=O)cc1C", "note": "(stereo partly specified)", "% Inhibition": -8, "Z score": 1.26}, {"smiles": "OC1CCC(NCc2ccc(-c3ccc(Cl)cc3)s2)CC1", "note": "(stereo unspecified)", "% Inhibition": -3, "Z score": 0.52}, {"smiles": "Cc1cccc(CS(=O)(=O)N[C@@H](C)c2csc(C)n2)c1", "% Inhibition": -23, "Z score": 2.11}, {"smiles": "COc1cccc(C[C@H](C)NC(=O)N2CCC(O)(C(F)(F)F)CC2)c1", "% Inhibition": -17, "Z score": 1.72}, {"smiles": "N#Cc1ccc(N2CCCN(C(=O)COc3ccccc3)CC2)cn1", "% Inhibition": 0, "Z score": 0.03}, {"smiles": "COc1ccc(Nc2nc(Nc3ccc(OC)cc3)nc(N3CC[C@@H]4CCCN4C3)n2)cc1", "% Inhibition": 0, "Z score": 0.03}, {"smiles": "O=C(NCCCN1CCOCC1)[C@@]12CCCC[C@H]1N(C1CC1)S(=O)(=O)CC2", "% Inhibition": -16, "Z score": 1.88}, {"smiles": "Cn1nc(CCC(=O)Nc2ccccn2)ccc1=O", "% Inhibition": -18, "Z score": 3.68}, {"smiles": "Cc1cc(C(F)(F)F)n(CCC#N)n1", "% Inhibition": -22, "Z score": 2.56}, {"smiles": "Cn1c(-c2cccc(Cl)c2)cn2cc(-c3ccc(-c4ccccc4)cc3)nc12", "% Inhibition": -34, "Z score": 3.94}, {"smiles": "O=C1C(=O)N(C2CCCCC2)C(=O)N1Cc1nc(-c2c(F)cccc2F)cs1", "% Inhibition": -5, "Z score": 0.94}, {"smiles": "C=CC(C)c1noc(C2(C)CCCN2C(=O)c2ccccc2)n1", "note": "(stereo unspecified)", "% Inhibition": -20, "Z score": 2.36}, {"smiles": "c1ccc2c(-c3n[nH]cc3CNC[C@@H](c3ccncc3)N3CCOCC3)cccc2c1", "% Inhibition": 0, "Z score": -0.04}, {"smiles": "O=C(NC(c1ccccc1)c1ccccc1)N1CCN(c2cnsn2)CC1", "% Inhibition": -7, "Z score": 0.88}, {"smiles": "CNc1cc(C(=O)N[C@H]2C[C@H](c3cc(N4CCCC4)ncn3)C2)ccn1", "% Inhibition": -8, "Z score": 1.3}, {"smiles": "COCC(=O)N1CCC(c2c[nH]c3ccccc23)CC1", "% Inhibition": 8, "Z score": -1.11}, {"smiles": "O=C1C[C@@H](c2ccccc2)N(C(=O)CNC(=O)NC2CCCCC2)CCCCCCN1", "% Inhibition": -19, "Z score": 2.67}, {"smiles": "C=CCNC(=O)c1sc(=S)n(CCc2ccccc2)c1N", "% Inhibition": -6, "Z score": 0.7}, {"smiles": "O=C(Nc1cc(F)ccc1F)OCC(F)(F)F", "% Inhibition": -16, "Z score": 1.41}, {"smiles": "Cc1oc(-c2ccccc2Cl)nc1Cn1ncc2cccnc21", "% Inhibition": -8, "Z score": 1.05}, {"smiles": "O=C(c1ccc(CN2C(=O)CNC2=O)cc1)N1CCC(c2nc3ccccc3s2)CC1", "% Inhibition": -17, "Z score": 1.93}, {"smiles": "COCc1c(C#N)c(NCc2ccccc2)nc(C)c1NC(=O)c1ccccc1", "% Inhibition": 2, "Z score": -0.29}, {"smiles": "O=C(Nc1ccc(Cl)cc1Cl)c1cc(C(=O)Nc2ccc(Cl)cc2Cl)cc(C(=O)Nc2ccc(Cl)cc2Cl)c1", "% Inhibition": 8, "Z score": -0.96}, {"smiles": "CCCc1cc(-c2nc(-c3csc(C(C)C)n3)no2)no1", "% Inhibition": -24, "Z score": 4.28}, {"smiles": "COCc1nc(C)cc(NC2CCCC2C(N)=O)n1", "note": "(stereo unspecified)", "% Inhibition": -12, "Z score": 1.97}, {"smiles": "CN(Cc1ccc(F)c(Cl)c1)[C@H]1COC[C@@H]1O", "% Inhibition": -6, "Z score": 0.86}, {"smiles": "CCC(NC(=O)c1cc(OC)c(OC(C)C)cc1Cl)[C@H]1C[C@H](O)C1", "note": "(stereo partly specified)", "% Inhibition": -1, "Z score": 0.07}, {"smiles": "CN1[C@@H]2CCN(C(=O)Cc3ccccc3F)C[C@@]2(C(=O)N2CCCC2)CCS1(=O)=O", "% Inhibition": -10, "Z score": 1.45}, {"smiles": "CCS(=O)(=O)N1CCC[C@H](C(=O)NC2CC2)C1", "% Inhibition": -7, "Z score": 0.75}, {"smiles": "Cc1cccc(CNC(=O)C2CCN(S(=O)(=O)c3ccc4c(c3)CCCN4C(=O)C3CCC3)CC2)c1", "% Inhibition": -18, "Z score": 3.36}, {"smiles": "CNC(=O)C[C@H]1CCN(Cc2nc(C)cs2)C1", "% Inhibition": -6, "Z score": 0.81}, {"smiles": "Cc1ccc(F)cc1-c1nnc(NS(=O)(=O)c2ccoc2)o1", "% Inhibition": 32, "Z score": -3.06}, {"smiles": "CN1CCCCCCN(C(=O)NC2CCCCC2)CCC1=O", "% Inhibition": -17, "Z score": 2.21}, {"smiles": "CNc1nc2c(c(C(=O)N3CCCC3)n1)CN(Cc1cccc(-c3ccc(C)o3)c1)CC2", "% Inhibition": -10, "Z score": 1.2}, {"smiles": "COc1cccc(-c2ccc3c(c2)O[C@H]2CN(C4CCCC4)C[C@H]2N(C)C3=O)c1", "% Inhibition": -1, "Z score": 0.12}, {"smiles": "CN1C(=O)N[C@](C)(c2ccc(NCc3nnn(C(C)(C)C)n3)cc2)C1=O", "% Inhibition": -4, "Z score": 0.37}, {"smiles": "Cc1cccc(NC(=O)Cc2nnn[nH]2)c1", "% Inhibition": -6, "Z score": 0.75}, {"smiles": "O=C(O)c1ccc([C@H]2CCN(CC(=O)N3CCCCCC3)C2)cc1", "% Inhibition": 2, "Z score": -0.25}, {"smiles": "Cc1ccc(CCC(=O)Nc2ccc(C)c(-c3ncco3)c2)o1", "% Inhibition": -2, "Z score": 0.32}, {"smiles": "CC1CC1NC(=O)C(NS(C)(=O)=O)C(C)(C)C", "note": "(stereo unspecified)", "% Inhibition": 33, "Z score": -4.79}, {"smiles": "C[C@H](NCC1(O)CCCCCC1)c1cc2n(n1)CCC2", "% Inhibition": -13, "Z score": 1.97}, {"smiles": "O=C(Nc1cc(-c2ccccc2)ns1)N1CCC[C@H](CO)C1", "% Inhibition": -46, "Z score": 5.35}, {"smiles": "NC(=O)CN1CCc2[nH]nc(-c3cccc(F)c3)c2C1", "% Inhibition": 2, "Z score": -0.44}, {"smiles": "Cc1cccc(CN2CC(n3cc(C(=O)NCC4CC4)nn3)C2)c1", "% Inhibition": -4, "Z score": 0.71}, {"smiles": "O=c1ccncn1CC1CCN(c2ncnc3[nH]ccc23)CC1", "% Inhibition": 4, "Z score": -0.69}, {"smiles": "O=C(c1ccc(F)cc1)N1CCN(c2ncnc3c(F)cccc23)CC1", "% Inhibition": -13, "Z score": 1.94}, {"smiles": "COCCn1cncc1CNC(=O)CN1[C@H](C)CCC[C@@H]1C", "% Inhibition": -12, "Z score": 1.64}, {"smiles": "Cc1ccc(C(=O)N[C@H]2CN(C3CCCCC3)C[C@@H]2C2CC2)c(=O)n1C", "% Inhibition": -11, "Z score": 1.83}, {"smiles": "CCC(=O)Nc1ccc(NC(=O)[C@@H]2CCCN2Cc2ccccc2)c(C)c1", "% Inhibition": -1, "Z score": 0.16}, {"smiles": "CCCCC(=O)N(CC(N)=O)Cc1ccccc1", "% Inhibition": -12, "Z score": 1}, {"smiles": "O=C(C[C@H]1CCCO1)Nc1cc(Br)c(F)cc1F", "% Inhibition": 7, "Z score": -0.71}, {"smiles": "Nc1nc(CN2CCC3CCCCC3C2)nc(Nc2ccccc2)n1", "note": "(stereo unspecified)", "% Inhibition": -2, "Z score": 0.18}, {"smiles": "CC1(C)CN(C(=O)c2coc(COc3cccc4cccnc34)n2)CCO1", "% Inhibition": -2, "Z score": 0.36}, {"smiles": "COc1cccc(CC(=O)N2Cc3cccnc3C2)c1", "% Inhibition": -17, "Z score": 2.01}]}]}
